Results taken from PubChem BioAssay AID1671188 (National Center for Advancing Translational Sciences (NCATS), 2021).
Several values for one entry are separate records, joined by “and”; a condition that tells them apart may be missing. Identical values can stand only once. About 250 (0.25%) of roughly 100,000 compounds were called active. Inconclusive means that the source gave no clear call. Such entries were picked first, then a sample of the others. The call rests on the fitted dose curve; in most records, active means well fitted inhibition curve with a large enough effect; inconclusive means small, poorly fitted or top-dose-only effect; inactive means flat fitted curve, though single readings scatter. A potency beside an inconclusive call is a rough fit, not a confirmed value.
Further: nearly all actives have a fitted effect of over 60% in size.
Potency means the concentration at half of the fitted maximal effect; tags describe the fitted curve by direction and shape.

What follows are molecules tested against Alanine aminotransferase 2 (Homo sapiens) (UniProt Q8TD30) (assay: Primary qHTS assay for inhibitors of Glutamate pyruvate transaminase 2 (GPT2)). Settings: Recombinant GPT2, coupled pyruvate oxidase/HRP Amplex Red fluorescence; series mostly up to 57.7 µM.
Sequence of UniProt Q8TD30 (Q8TD30 whole entry, looked up): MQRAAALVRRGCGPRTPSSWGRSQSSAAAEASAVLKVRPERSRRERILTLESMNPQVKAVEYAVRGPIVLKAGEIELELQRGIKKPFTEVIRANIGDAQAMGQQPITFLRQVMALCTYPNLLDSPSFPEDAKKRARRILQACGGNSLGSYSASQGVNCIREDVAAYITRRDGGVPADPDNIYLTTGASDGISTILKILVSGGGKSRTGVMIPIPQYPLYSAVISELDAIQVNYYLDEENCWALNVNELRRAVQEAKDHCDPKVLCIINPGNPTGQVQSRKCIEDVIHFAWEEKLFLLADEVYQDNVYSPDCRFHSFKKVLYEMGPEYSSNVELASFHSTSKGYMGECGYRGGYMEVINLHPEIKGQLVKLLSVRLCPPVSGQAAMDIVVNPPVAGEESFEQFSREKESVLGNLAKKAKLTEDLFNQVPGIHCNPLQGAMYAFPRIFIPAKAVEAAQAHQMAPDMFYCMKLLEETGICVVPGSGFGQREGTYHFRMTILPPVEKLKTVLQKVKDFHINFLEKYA
Summary of the method: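 Recombinant GPT2 (10ng/uL) with 250uM a-KG and 2mM L-alanine, 30 min at room temperature, in HEPES pH 7.5 buffer. Pyruvate detected by pyruvate oxidase/HRP/Amplex Red fluorescence after 30 min in the dark; AOA (50uM) as positive control.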
O=C(NCCc1noc(-c2ccncc2)n1)c1ccccc1F was tested, and the Potency was “inactive”.
With c1c[nH]c(CNC[C@H]2Cn3ccnc3CO2)n1 the Potency was inconclusive: 63.1 µM [inhibitor, single point].
CNc1nccc(N2CCC(CC(=O)NCCC(C)C)CC2)n1 was tested, and the Potency was “inactive”.
For Cc1noc2c(N(C)C)cc(-c3ccc(Cl)cc3)nc12, the Potency was inconclusive: 2.51 µM [inhibitor, full curve, poor fit].
In the case of O=C(N[C@H]1CCOC[C@H]1C1CCOCC1)c1ccc2c(c1)ncn2CCO, the Potency is reported as inconclusive: 28.2 µM [inhibitor, single point].
With CN1CCCC1c1nc(C2CN(C(=O)C3CC3)C2)no1 (stereo not drawn) the Potency was inconclusive: 2.51 µM [inhibitor, partial curve, poor fit].
COc1ccc(-c2cc(N3CCCC(NC(=O)c4cccc(NC(C)=O)c4)C3)n[nH]2)cc1 (stereo not drawn) was tested, and the Potency was inconclusive: 22.4 µM [inhibitor, single point].
For C=CCn1cc2c3c(cccc31)[C@H](CC(C)C)N[C@H](C(=O)NCc1ccc(OC)cc1)C2, the Potency was “inactive”.
With O=C1C(SCCO)=C(SCCO)C(=O)c2ccccc21 the Potency was inconclusive: 2.24 µM [inhibitor, full curve, poor fit].
With O=C(NCCc1ccccc1F)c1nc2sccn2c1-c1ccc(C(F)(F)F)cc1 the Potency was inconclusive: 31.6 µM [inhibitor, single point].
For COc1ccccc1CN1CCc2nc(C3CC3)nc(-c3ccc(O)cc3)c2CC1, the Potency was inconclusive: 10 µM [inhibitor, partial curve, poor fit].
With CN(CCC1CCOCC1)C(=O)c1ccc2oc(-c3cccc(F)c3)nc2c1 the Potency was inconclusive: 39.8 µM [inhibitor, single point].
In the case of c1cc(-c2n[nH]c(C3CCCCN3)n2)ccn1 (stereo not drawn), the Potency is reported as inconclusive: 6.31 µM [inhibitor, single point].
In the case of CC(C)C(=O)N[C@H]1C[C@@H](Cc2cc(COc3ccccc3)on2)C1(C)C, the Potency is reported as “inactive”.
With COc1ccc(C2Cn3nnc(-c4noc(-c5cccc(N(C)C)c5)n4)c3CO2)cc1 (stereo not drawn) the Potency was inconclusive: 8.91 µM [inhibitor, full curve].
With CN1CCN(C(=O)c2cc(-c3cccc(C(F)(F)F)c3)c3nncn3n2)CC1 the Potency was inconclusive: 1.58 µM [inhibitor, partial curve, poor fit].
With CN[C@@H](CO)C(=O)NCc1nc(-c2ccc(C)cc2)c(-c2ccccn2)[nH]1 the Potency was “inactive”.
In the case of CCCNC(=O)c1cccc2c1CCN2S(=O)(=O)c1ccc(OC)cc1, the Potency is reported as inconclusive: 39.8 µM [inhibitor, single point].
In the case of CN1CCC(CNc2ncc(C(C)(C)C(=O)O)c(N3CCOCC3)n2)C1 (stereo not drawn), the Potency is reported as “inactive”.
For Cc1ccc(C(=O)N(C)C2CCc3nn(CC4CC4)c(=O)n3CC2)c(=O)[nH]1 (stereo not drawn), the Potency was inconclusive: 39.8 µM [inhibitor, single point].
With COC(=O)CNC(=O)C1CCN(c2nc3ncccc3o2)CC1 the Potency was “inactive”.
For Cc1ccccc1-c1nc(C2CC(=O)N(c3ccc(F)c(Cl)c3)C2)no1 (stereo not drawn), the Potency was inconclusive: 39.8 µM [inhibitor, single point].
CCc1[nH]c2c(CNC(=O)c3c(C)cc(C)n(C)c3=O)cc(F)cc2c1C was tested, and the Potency was “inactive”.
For Cc1ccc(Nc2ccnc(N3CCN(C(=O)Cc4ccc(F)cc4)CC3)n2)cc1, the Potency was “inactive”.
Clc1cc(N2CCC(N3CCOCC3)CC2)n2nccc2n1 was tested, and the Potency was inconclusive: 11.2 µM [inhibitor, single point].
In the case of CCc1ccc(C(=O)N2CCC3(CC2)N(c2ccccc2)C(=O)CS3(=O)=O)cc1, the Potency is reported as inconclusive: 7.08 µM [inhibitor, single point].
For CNC(=O)[C@@H]1C[C@H](Oc2ccccc2)CN1C(=O)CCc1c[nH]c2ccccc12, the Potency was “inactive”.
For FC(F)(F)c1cccc(Nc2cnc3ccc(-n4ccnc4)nn23)c1, the Potency was inconclusive: 3.98 µM [inhibitor, partial curve, poor fit].
O=C(CN1CC2CC(C1)[C@H]1CCCC(=O)N1C2)N1CCN(c2ncccn2)CC1 (stereo partly drawn) was tested, and the Potency was inconclusive: 0.708 µM [inhibitor, full curve, poor fit].
COc1ccccc1CNC(=O)c1nnn2cc(C)[nH]c(=O)c12 was tested, and the Potency was inconclusive: 8.91 µM [inhibitor, single point].
In the case of CN(Cc1cccc(C(F)(F)F)c1)C(=O)C1(c2ccc(Cl)cc2)CCOCC1, the Potency is reported as inconclusive: 25.1 µM [inhibitor, partial curve, poor fit].
With O=C(NCc1nncn1CCc1ccccc1)C1CC2(CCNCC2)CN1 (stereo not drawn) the Potency was inconclusive: 0.708 µM [inhibitor, full curve, poor fit].
With C=C[C@H]1[C@H](O[C@@H]2O[C@H](CO[C@@H]3OC[C@](O)(CO)[C@H]3O)[C@@H](O)[C@H](O)[C@H]2O)OC=C2C(=O)OCC[C@H]21 the Potency was inconclusive: 10 µM [inhibitor, single point].
CCc1nc2c(c(-c3ccc(Cl)cc3)n1)CCN(CCC(C)C)CC2 was tested, and the Potency was inconclusive: 35.5 µM [inhibitor, single point].
O=C1CC2(CCN(C(=O)c3ccc4c(c3)OCO4)CC2)CN1CC1CCCO1 (stereo not drawn) was tested, and the Potency was “inactive”.
For O=C(NCc1cccc(Cl)c1)c1ccc2nnc(-c3cc(C(F)(F)F)cc(C(F)(F)F)c3)n2c1, the Potency was “inactive”.
With O=C(NCC1CCN(Cc2cccc(Cl)c2)CC1)[C@@H]1CCCN(c2ncnc3c2nc2n3CCCC2)C1 the Potency was “inactive”.
Cc1cnc(C(=O)N[C@@H]2CCC[C@@H]2C(=O)NCc2ccc(OC(C)C)cc2)cn1 was tested, and the Potency was inconclusive: 6.31 µM [inhibitor, single point].
With O=C(NCC1(COc2cccnc2)C[C@@H](O)[C@@H](O)C1)c1cnccn1 (stereo partly drawn) the Potency was inconclusive: 12.6 µM [inhibitor, single point].
In the case of C[C@@H]1CN(C(=O)C2(N3C[C@@H](C)O[C@@H](C)C3)Cc3ccccc3C2)C[C@H](C)O1, the Potency is reported as “inactive”.
In the case of Cc1nn2c(c1-c1ccccc1[S+](C)(=O)[O-])N(CCCc1ccccc1)CCC2, the Potency is reported as “inactive”.
O=C(NCCC1CCN(Cc2ccccc2)CC1)C1CCN(c2cnn(Cc3ccccc3)c(=O)c2)C1 (stereo not drawn) was tested, and the Potency was “inactive”.
For COc1cc2c(cc1OC)C(CNC(=O)c1ccc(Cl)cc1)N(C(=O)Nc1ccccc1)CC2 (stereo not drawn), the Potency was inconclusive: 8.91 µM [inhibitor, single point].
In the case of CCCC(NC(C)=O)C(=O)Nc1cccc(NC(=O)Cc2ccccc2)c1 (stereo not drawn), the Potency is reported as inconclusive: 0.708 µM [inhibitor, full curve, poor fit].
In the case of COc1ccc(C(=O)N2CCN(c3nccc(Nc4ccccc4F)n3)CC2)cc1, the Potency is reported as “inactive”.
CC(C)CCN1CCc2nc(C(C)C)nc(-c3ccc(Cl)cc3)c2CC1 was tested, and the Potency was “inactive”.
In the case of CC(C)NC(=O)c1ccc2nc(-c3ccccn3)oc2c1, the Potency is reported as “inactive”.
For O=C(N[C@@H]1CN(Cc2ccc(F)cc2Cl)C[C@H]1CO)C1CCC1, the Potency was “inactive”.
N.N.O=C(O)C1(C(=O)O)CCC1.[Pt] was tested, and the Potency was inconclusive: 28.2 µM [inhibitor, single point].
For COc1ccc(-c2noc(-c3cccn3CC(=O)N(C)c3ccccc3)n2)cc1F, the Potency was “inactive”.
CN1[C@@H](CCC(=O)NCc2cccs2)CNC(=O)[C@@H]2[C@H]1CCN2Cc1cccs1 was tested, and the Potency was inconclusive: 56.2 µM [inhibitor, single point].
O=C1c2c(nc(CNCc3ccc4c(c3)OCO4)n2Cc2ccccc2)NCCN1CCOc1ccccc1 was tested, and the Potency was “inactive”.
With CCOc1ccc(C(=O)N2CCCN(c3cc(-c4ccc(OC)cc4)[nH]n3)CC2)cc1OCC the Potency was “inactive”.
With O=C(Cn1ccn2nc(-c3ccc(F)cc3)c(CO)c2c1=O)N1CCCc2ccccc21 the Potency was inconclusive: 6.31 µM [inhibitor, single point].
In the case of NC(CO)C(=O)NNCc1ccc(O)c(O)c1O (stereo not drawn), the Potency is reported as inconclusive: 1.78 µM [inhibitor, partial curve, poor fit] and inconclusive: 5.44 µM [inhibitor, full curve, poor fit] and inconclusive: 4.47 µM [inhibitor, full curve, poor fit].
With NC1(C(=O)O)CCc2cc(C(=O)O)ccc21 (stereo not drawn) the Potency was inconclusive: 6.31 µM [inhibitor, single point].
With CC1(c2ccccc2)N(Cc2ccccc2)C(=O)OC12CCN(C(=O)c1ccc(F)cc1)CC2 (stereo not drawn) the Potency was “inactive”.
Cc1ccccc1C(=O)N1CCC(c2nn(-c3ccc(Cl)cc3)c(=O)[nH]2)CC1 was tested, and the Potency was “inactive”.
For O=C1NCc2ccccc2CC12CCCN(Cc1ccccc1OC(F)(F)F)C2 (stereo not drawn), the Potency was inconclusive: 39.8 µM [inhibitor, single point].
For Cc1nc(C(=O)N2CCCC(c3[nH]ncc3Cc3ccccc3)C2)cs1 (stereo not drawn), the Potency was “inactive”.
With COCCNC(=O)[C@H]1C[C@H](Oc2cccnc2)CN1C(=O)c1cccs1 the Potency was “inactive”.
Cc1noc(C)c1-c1cc2cc(CO)oc2c(NCc2ccc3c(c2)OCO3)n1 was tested, and the Potency was inconclusive: 35.5 µM [inhibitor, single point].
In the case of C[C@H]1COc2c(N3CCN(C)CC3)c(F)cc3c(=O)c(C(=O)O)cn1c23, the Potency is reported as inconclusive: 43.2 µM [inhibitor, single point].
In the case of CCCc1ncncc1C(=O)N1CCCC(CCc2ccc(F)cc2)C1 (stereo not drawn), the Potency is reported as “inactive”.
Cc1cccc(N2Cc3c(ncnc3N3CCOCC3)CN(C)C2=O)c1 was tested, and the Potency was inconclusive: 39.8 µM [inhibitor, single point].
COc1cccc(-c2ccnc(-c3nnc(C)n3CCN3CCOCC3)c2)c1 was tested, and the Potency was inconclusive: 7.08 µM [inhibitor, single point].
For CCCC(=O)OCOC(=O)C1=C(C)NC(C)=C(C(=O)OC)C1c1cccc(Cl)c1Cl (stereo not drawn), the Potency was “inactive”.
With CCCn1c(C)cnc1CC1CCN(S(=O)(=O)c2ccc3c(c2)CCC3)C1 (stereo not drawn) the Potency was “inactive”.
